# In a collection of fitness landscapes (doi:10.1126/science.1257360):
# This is one part of the list.
# B1: PhoQ; a variant is named by its letters at X, in order, P23837 (parent)
# chain: MKKLLRLFFPLSLRVRFLLATAAVVLVLSLAYGMVALIGYSVSFDKTTFRLLRGESNLFYTLAKWENNKLHVELPENIDKQSPTMTLIYDENGQLLWAQRDVPWLMKMIQPDWLKSNGFHEIEADVNDTSLLLSGDHSIQQQLQEVREDDDDAEMTHSVAVNVYPATSRMPKLTIVVVDTIPVELKSSYMVWSWFIYVLSANLLLVIPLLWVAAWWSLRPIEALAKEVRELEEHNRELLNPATTRELTSLVRNLNRLLKSERERYDKYRTTLTDLTHSLKTPLXXLQXXLRSLRSEKMSVSDAEPVMLEQISRISQQIGYYLHRASMRGGTLLSRELHPVAPLLDNLTSALNKVYQRKGVNISLDISPEISFVGEQNDFVEVMGNVLDNACKYCLEFVEISARQTDEHLYIVVEDDGPGIPLSKREVIFDRGQRVDTLRPGQGVGLAVAREITEQYEGKIVAGESMLGGARMEVIFGRQHSAPKDE
# Variants of: B1
# Experiment: enrichment ratio after two sorts for PhoP signalling (ratio (wild type AVST 3.29)); higher = more functional
# Settings: with PhoP (E. coli)
row,Variant,enrichment ratio
1,VIGF,≤ 0.25
2,ADYD,≤ 0.25
3,NFWK,≤ 0.25
4,FGAR,≤ 0.25
5,NTES,≤ 0.25
6,LYEE,≤ 0.25
7,SAND,≤ 0.25
8,WKQQ,≤ 0.25
9,YFTA,≤ 0.25
10,VPQW,≤ 0.25
11,YVLW,≤ 0.25
12,LCWY,≤ 0.25
13,IMYM,≤ 0.25
14,QETY,≤ 0.25
15,QEAG,≤ 0.25
16,TEIS,11.4
17,GRFP,≤ 0.25
18,KGHQ,≤ 0.25
19,HEPL,≤ 0.25
20,AAYR,≤ 0.25
21,QHHC,≤ 0.25
22,GCDF,≤ 0.25
23,HHHR,≤ 0.25
24,HSLV,8.27

row,Variant,enrichment ratio
1,EAPR,≤ 0.25
2,WVMV,≤ 0.25
3,YYSI,≤ 0.25
4,FMCM,0.797
5,KKSI,≤ 0.25
6,FLLC,≤ 0.25
7,QWPM,≤ 0.25
8,ASFA,≤ 0.25
9,KRLD,≤ 0.25
10,HTSW,≤ 0.25
11,WWTT,≤ 0.25
12,RPVK,≤ 0.25
13,PSIY,≤ 0.25
14,SYPD,≤ 0.25
15,FPFL,≤ 0.25
16,QIFW,≤ 0.25
17,SFES,≤ 0.25
18,SADE,≤ 0.25
19,YFAP,≤ 0.25
20,LMMF,≤ 0.25
21,PRYD,≤ 0.25
22,LAME,≤ 0.25
23,HRSK,≤ 0.25
24,QKIA,≤ 0.25

row,Variant,enrichment ratio
1,SMES,≤ 0.25
2,GIIG,3.38
3,RDDS,≤ 0.25
4,PWRF,≤ 0.25
5,FWLK,≤ 0.25
6,FAHL,≤ 0.25
7,RGGD,≤ 0.25
8,IPPM,≤ 0.25
9,TTHF,11.8
10,PEYN,≤ 0.25
11,HWDC,≤ 0.25
12,FDLW,≤ 0.25
13,FPQM,≤ 0.25
14,VWDM,≤ 0.25
15,VKTM,≤ 0.25
16,AYPQ,≤ 0.25
17,HGTA,≤ 0.25
18,VLLI,0.611
19,TMQG,11.9
20,FPDY,≤ 0.25
21,CYCR,≤ 0.25
22,SLWT,≤ 0.25
23,LRLW,0.358
24,FMGD,≤ 0.25

row,Variant,enrichment ratio
1,SLWA,≤ 0.25
2,ASGT,8.73
3,EAVG,≤ 0.25
4,LWAA,≤ 0.25
5,AVFI,≤ 0.25
6,AGLM,6.12
7,TIDG,≤ 0.25
8,EHWA,≤ 0.25
9,TLMP,≤ 0.25
10,RMVY,≤ 0.25
11,IIKH,≤ 0.25
12,SAQS,≤ 0.25
13,DMTN,≤ 0.25
14,TIME,≤ 0.25
15,HQHC,≤ 0.25
16,YNWM,≤ 0.25
17,SHKS,≤ 0.25
18,IFMP,≤ 0.25
19,YPDN,≤ 0.25
20,WAKF,≤ 0.25
21,SCWL,≤ 0.25
22,PRIF,≤ 0.25
23,AETG,8.19
24,TGVV,0.277

row,Variant,enrichment ratio
1,QNCP,≤ 0.25
2,VQHT,≤ 0.25
3,MCLC,1.65
4,SMFK,≤ 0.25
5,VDIY,≤ 0.25
6,IIHR,≤ 0.25
7,TCKP,≤ 0.25
8,EYCL,≤ 0.25
9,HKVH,≤ 0.25
10,YGSI,≤ 0.25
11,WMPR,≤ 0.25
12,MNWD,1.62
13,YMRD,0.298
14,YDMH,≤ 0.25
15,MWSP,≤ 0.25
16,YTGD,≤ 0.25
17,YKLL,≤ 0.25
18,VMAL,≤ 0.25
19,ALFV,≤ 0.25
20,DAHQ,≤ 0.25
21,FTDC,≤ 0.25
22,ENDI,≤ 0.25
23,IHRW,≤ 0.25
24,RTIM,≤ 0.25

row,Variant,enrichment ratio
1,WNWI,≤ 0.25
2,HEAV,≤ 0.25
3,KVAR,≤ 0.25
4,FDMF,≤ 0.25
5,HWSE,1.11
6,TTDG,≤ 0.25
7,GDRS,≤ 0.25
8,DNPQ,≤ 0.25
9,PKTF,≤ 0.25
10,PLDH,≤ 0.25
11,NHFY,≤ 0.25
12,FYWS,≤ 0.25
13,QPPI,≤ 0.25
14,RVSE,≤ 0.25
15,GQGW,≤ 0.25
16,YWPT,≤ 0.25
17,GATN,≤ 0.25
18,TNFQ,≤ 0.25
19,IQRF,≤ 0.25
20,MVSR,≤ 0.25
21,TSWQ,6.69
22,FPYH,≤ 0.25
23,AAQW,≤ 0.25
24,SISF,10.7

row,Variant,enrichment ratio
1,VATW,≤ 0.25
2,YGSY,≤ 0.25
3,AECS,39.5
4,HHCG,≤ 0.25
5,LRSS,≤ 0.25
6,KAIA,≤ 0.25
7,TAPS,≤ 0.25
8,WPHS,≤ 0.25
9,EMYR,≤ 0.25
10,PGEW,≤ 0.25
11,WYMF,≤ 0.25
12,SFHH,≤ 0.25
13,PQIG,≤ 0.25
14,QQAL,≤ 0.25
15,WDMP,≤ 0.25
16,KVSL,≤ 0.25
17,PLTH,≤ 0.25
18,EGVH,≤ 0.25
19,NKYM,≤ 0.25
20,VGAD,≤ 0.25
21,AKVE,≤ 0.25
22,NRIG,≤ 0.25
23,AAWL,≤ 0.25
24,EFAL,≤ 0.25

row,Variant,enrichment ratio
1,MTKS,≤ 0.25
2,YCHV,≤ 0.25
3,AFHE,≤ 0.25
4,FQEG,≤ 0.25
5,DYVD,≤ 0.25
6,GFTG,≤ 0.25
7,NGTV,≤ 0.25
8,ASRI,≤ 0.25
9,DKYT,≤ 0.25
10,EEHL,≤ 0.25
11,KDAY,≤ 0.25
12,LWSD,≤ 0.25
13,GYSN,0.824
14,LWCV,≤ 0.25
15,MTPA,≤ 0.25
16,LYYE,≤ 0.25
17,ACSW,8.92
18,WGLH,≤ 0.25
19,INSG,≤ 0.25
20,VFYI,≤ 0.25
21,YQWQ,≤ 0.25
22,QWVS,≤ 0.25
23,ARCR,≤ 0.25
24,WNHR,≤ 0.25

row,Variant,enrichment ratio
1,LNLW,≤ 0.25
2,IQVD,≤ 0.25
3,YCTA,0.338
4,KKGR,≤ 0.25
5,IGNH,≤ 0.25
6,NLMH,≤ 0.25
7,KKVW,≤ 0.25
8,IVWS,≤ 0.25
9,NMRM,≤ 0.25
10,KVCH,≤ 0.25
11,HEPK,≤ 0.25
12,SPEM,≤ 0.25
13,DIRK,≤ 0.25
14,SPVS,≤ 0.25
15,HCQR,≤ 0.25
16,QNNQ,≤ 0.25
17,IKCS,≤ 0.25
18,LFRT,≤ 0.25
19,HLWV,≤ 0.25
20,DGKR,≤ 0.25
21,EIRV,≤ 0.25
22,DAPP,≤ 0.25
23,AGSI,7.64
24,YPWV,≤ 0.25

row,Variant,enrichment ratio
1,HQKY,≤ 0.25
2,HENT,≤ 0.25
3,RGEH,≤ 0.25
4,WNAP,≤ 0.25
5,NHTT,≤ 0.25
6,KACD,≤ 0.25
7,KDFF,≤ 0.25
8,DSAF,≤ 0.25
9,NFMY,≤ 0.25
10,RWNP,≤ 0.25
11,DTKP,≤ 0.25
12,TVNT,8.93
13,ESKF,≤ 0.25
14,DGKS,≤ 0.25
15,QCRK,≤ 0.25
16,ERFK,≤ 0.25
17,NKLV,≤ 0.25
18,YIMR,≤ 0.25
19,TDFV,≤ 0.25
20,HVLC,≤ 0.25
21,WAYI,≤ 0.25
22,THPL,≤ 0.25
23,QMYR,≤ 0.25
24,MMMW,≤ 0.25

row,Variant,enrichment ratio
1,YALI,13.3
2,RPSI,≤ 0.25
3,FAMN,≤ 0.25
4,RCVQ,≤ 0.25
5,WFGA,≤ 0.25
6,EMWW,≤ 0.25
7,FPWG,≤ 0.25
8,TTMQ,30.4
9,STWH,0.743
10,RQWP,≤ 0.25
11,TKKG,≤ 0.25
12,CISS,≤ 0.25
13,TENY,11.3
14,QNDR,≤ 0.25
15,LHQC,≤ 0.25
16,ITFV,≤ 0.25
17,KNIN,≤ 0.25
18,WDQY,≤ 0.25
19,PSHT,≤ 0.25
20,TWWV,≤ 0.25
21,PLWH,≤ 0.25
22,PAIT,≤ 0.25
23,WSWT,≤ 0.25
24,DPNS,≤ 0.25

row,Variant,enrichment ratio
1,MDII,≤ 0.25
2,KLCM,≤ 0.25
3,SMYC,≤ 0.25
4,WPAE,≤ 0.25
5,KLKR,≤ 0.25
6,EMSC,≤ 0.25
7,IPYA,≤ 0.25
8,ARHA,≤ 0.25
9,TDHG,≤ 0.25
10,IFCS,≤ 0.25
11,ATCT,7.03
12,MCGY,≤ 0.25
13,YHQT,≤ 0.25
14,DTTY,≤ 0.25
15,YCPQ,≤ 0.25
16,EGCI,≤ 0.25
17,NFKM,≤ 0.25
18,TENV,1.73
19,AHGN,≤ 0.25
20,HGRA,≤ 0.25
21,YYMM,≤ 0.25
22,ESSM,≤ 0.25
23,YFVR,≤ 0.25
24,RQVE,≤ 0.25

row,Variant,enrichment ratio
1,KLGF,≤ 0.25
2,HNRG,≤ 0.25
3,PSSR,≤ 0.25
4,QGGG,17.7
5,TRVW,≤ 0.25
6,ASPK,≤ 0.25
7,LRMY,≤ 0.25
8,TMKG,≤ 0.25
9,TEEV,≤ 0.25
10,GAIR,≤ 0.25
11,GCAG,2.41
12,VCSP,≤ 0.25
13,TEIP,≤ 0.25
14,DMWA,≤ 0.25
15,IEHA,≤ 0.25
16,YIMN,0.646
17,LTVS,≤ 0.25
18,HYNF,≤ 0.25
